# The other results are listed elsewhere or left out.
# B1: Siglec-9 (Homo sapiens), Q9Y336 (protein)
# chain: MLLLLLPLLWGRERAEGQTSKLLTMQSSVTVQEGLCVHVPCSFSYPSHGWIYPGPVVHGYWFREGANTDQDAPVATNNPARAVWEETRDRFHLLGDPHTKNCTLSIRDARRSDAGRYFFKMEKGSIKWNYKHHRLSVNVTALTHRPNILIPGTLESGCPQNLTCSVPWACEQGTPPMISWIGTSVSPLDPSTTRSSVLTLIPQPQDHGTSLTCQVTFPGASVTTNKTVHLNVSYPPQNLTMTVFQGDGTVSTVLGNGSSLSLPEGQSLRLVCAVDAVDSNPPARLSLSWRGLTLCPSQPSNPGVLELPWVHLRDAAEFTCRAQNPLGSQQVYLNVSLQSKATSGVTQGVVGGAGATALVFLSFCVIFVVVRSCRKKSARPAAGVGDTGIEDANAVRGSASQGPLTEPWAEDSPPDQPPPASARSSVGEGELQYASLSFQMVKPWDSRGQEATDTEYSEIKIHR
# Legend:
# Experiment in all cases: glycan array binding signal (z-score within array); higher = stronger binding
# Conditions in all cases: glycan notation: IUPAC condensed, linker removed; mutation: R120K
# [1] = target: Gal(b1-4)GlcNAc(b1-2)[Gal(b1-4)GlcNAc(b1-6)]Man(a1-6)[Gal(b1-4)GlcNAc(b1-2)Man(a1-3)]Man(b1-4)GlcNAc(b1-4)[Fuc(a1-6)]GlcNAc
# How it was run: (§1)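 The binding signal is a Z-score computed within each array and averaged over linkers. Arrays of the same protein sequence at different concentrations or buffers were also averaged together. Data originate from 3228 arrays in the Consortium for Functional Glycomics database, kept only where the protein sequence was available.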
# [2] = target: Gal(b1-4)GlcNAc(b1-2)[Gal(b1-4)GlcNAc(b1-6)]Man(a1-6)[GlcNAc(b1-4)][Gal(b1-4)GlcNAc(b1-2)Man(a1-3)]Man(b1-4)GlcNAc(b1-4)GlcNAc
# How it was run: as §1
# [3] = target: Gal(b1-4)GlcNAc(b1-2)[Gal(b1-4)GlcNAc(b1-6)]Man(a1-6)[GlcNAc(b1-4)][Gal(b1-4)GlcNAc(b1-2)[Gal(b1-4)GlcNAc(b1-4)]Man(a1-3)]Man(b1-4)GlcNAc(b1-4)[Fuc(a1-6)]GlcNAc
# How it was run: as §1
# [4] = target: Gal(b1-4)GlcNAc(b1-3)Gal(b1-3)GalNAc
# How it was run: as §1
# [5] = target: Gal(b1-4)GlcNAc(b1-3)Gal(b1-3)GlcNAc
# How it was run: as §1
# [6] = target: Gal(b1-4)GlcNAc(b1-3)Gal(b1-4)Glc
# How it was run: as §1
# [7] = target: Gal(b1-4)GlcNAc(b1-3)Gal(b1-4)GlcNAc
# How it was run: as §1
# [8] = target: Gal(b1-4)GlcNAc(b1-3)Gal(b1-4)GlcNAc(b1-2)Man(a1-3)[Gal(b1-4)GlcNAc(b1-3)Gal(b1-4)GlcNAc(b1-2)Man(a1-6)]Man(b1-4)GlcNAc(b1-4)GlcNAc
# How it was run: as §1
# [9] = target: Gal(b1-4)GlcNAc(b1-3)Gal(b1-4)GlcNAc(b1-2)Man(a1-3)[Gal(b1-4)GlcNAc(b1-3)Gal(b1-4)GlcNAc(b1-2)Man(a1-6)]Man(b1-4)GlcNAc(b1-4)[Fuc(a1-6)]GlcNAc
# How it was run: as §1
# [10] = target: Gal(b1-4)GlcNAc(b1-3)Gal(b1-4)GlcNAc(b1-2)[Gal(b1-4)GlcNAc(b1-3)Gal(b1-4)GlcNAc(b1-6)]Man(a1-6)[Gal(b1-4)GlcNAc(b1-3)Gal(b1-4)GlcNAc(b1-2)Man(a1-3)]Man(b1-4)GlcNAc(b1-4)GlcNAc
# How it was run: as §1
# [11] = target: Gal(b1-4)GlcNAc(b1-3)Gal(b1-4)GlcNAc(b1-2)[Gal(b1-4)GlcNAc(b1-3)Gal(b1-4)GlcNAc(b1-6)]Man(a1-6)[Gal(b1-4)GlcNAc(b1-3)Gal(b1-4)GlcNAc(b1-2)Man(a1-3)]Man(b1-4)GlcNAc(b1-4)[Fuc(a1-6)]GlcNAc
# How it was run: as §1
# [12] = target: Gal(b1-4)GlcNAc(b1-3)Gal(b1-4)GlcNAc(b1-3)Gal(b1-4)GlcNAc
# How it was run: as §1
# [13] = target: Gal(b1-4)GlcNAc(b1-3)Gal(b1-4)GlcNAc(b1-3)Gal(b1-4)GlcNAc(b1-2)Man(a1-3)[Gal(b1-4)GlcNAc(b1-3)Gal(b1-4)GlcNAc(b1-3)Gal(b1-4)GlcNAc(b1-2)Man(a1-6)]Man(b1-4)GlcNAc(b1-4)GlcNAc
# How it was run: as §1
# [14] = target: Gal(b1-4)GlcNAc(b1-3)Gal(b1-4)GlcNAc(b1-3)Gal(b1-4)GlcNAc(b1-2)Man(a1-3)[Gal(b1-4)GlcNAc(b1-3)Gal(b1-4)GlcNAc(b1-3)Gal(b1-4)GlcNAc(b1-2)Man(a1-6)]Man(b1-4)GlcNAc(b1-4)[Fuc(a1-6)]GlcNAc
# How it was run: as §1
# [15] = target: Gal(b1-4)GlcNAc(b1-3)Gal(b1-4)GlcNAc(b1-3)Gal(b1-4)GlcNAc(b1-2)[Gal(b1-4)GlcNAc(b1-3)Gal(b1-4)GlcNAc(b1-3)Gal(b1-4)GlcNAc(b1-6)]Man(a1-6)[Gal(b1-4)GlcNAc(b1-3)Gal(b1-4)GlcNAc(b1-3)Gal(b1-4)GlcNAc(b1-2)Man(a1-3)]Man(b1-4)GlcNAc(b1-4)[Fuc(a1-6)]GlcNAc
# How it was run: as §1
# [16] = target: Gal(b1-4)GlcNAc(b1-3)Gal(b1-4)GlcNAc(b1-3)Gal(b1-4)GlcNAc(b1-3)Gal(b1-4)GlcNAc(b1-2)Man(a1-3)[Gal(b1-4)GlcNAc(b1-3)Gal(b1-4)GlcNAc(b1-3)Gal(b1-4)GlcNAc(b1-3)Gal(b1-4)GlcNAc(b1-2)Man(a1-6)]Man(b1-4)GlcNAc(b1-4)GlcNAc
# How it was run: as §1
# [17] = target: Gal(b1-4)GlcNAc(b1-3)Gal(b1-4)GlcNAc(b1-3)Gal(b1-4)GlcNAc(b1-3)Gal(b1-4)GlcNAc(b1-2)Man(a1-3)[Gal(b1-4)GlcNAc(b1-3)Gal(b1-4)GlcNAc(b1-3)Gal(b1-4)GlcNAc(b1-3)Gal(b1-4)GlcNAc(b1-2)Man(a1-6)]Man(b1-4)GlcNAc(b1-4)[Fuc(a1-6)]GlcNAc
# How it was run: as §1
# [18] = target: Gal(b1-4)GlcNAc(b1-3)Gal(b1-4)GlcNAc(b1-3)Gal(b1-4)GlcNAc(b1-3)Gal(b1-4)GlcNAc(b1-2)[Gal(b1-4)GlcNAc(b1-3)Gal(b1-4)GlcNAc(b1-3)Gal(b1-4)GlcNAc(b1-3)Gal(b1-4)GlcNAc(b1-6)]Man(a1-6)[Gal(b1-4)GlcNAc(b1-3)Gal(b1-4)GlcNAc(b1-3)Gal(b1-4)GlcNAc(b1-3)Gal(b1-4)GlcNAc(b1-2)Man(a1-3)]Man(b1-4)GlcNAc(b1-4)[Fuc(a1-6)]GlcNAc
# How it was run: as §1
# [19] = target: Gal(b1-4)GlcNAc(b1-3)Gal(b1-4)GlcNAc(b1-3)Gal(b1-4)GlcNAc(b1-3)Gal(b1-4)GlcNAc(b1-3)Gal(b1-4)GlcNAc(b1-2)Man(a1-3)[Gal(b1-4)GlcNAc(b1-3)Gal(b1-4)GlcNAc(b1-3)Gal(b1-4)GlcNAc(b1-3)Gal(b1-4)GlcNAc(b1-3)Gal(b1-4)GlcNAc(b1-2)Man(a1-6)]Man(b1-4)GlcNAc(b1-4)GlcNAc
# How it was run: as §1
# [20] = target: Gal(b1-4)GlcNAc(b1-3)Gal(b1-4)GlcNAc(b1-3)Gal(b1-4)GlcNAc(b1-3)Gal(b1-4)GlcNAc(b1-3)Gal(b1-4)GlcNAc(b1-2)Man(a1-3)[Gal(b1-4)GlcNAc(b1-3)Gal(b1-4)GlcNAc(b1-3)Gal(b1-4)GlcNAc(b1-3)Gal(b1-4)GlcNAc(b1-3)Gal(b1-4)GlcNAc(b1-2)Man(a1-6)]Man(b1-4)GlcNAc(b1-4)[Fuc(a1-6)]GlcNAc
# How it was run: as §1
# [21] = target: Gal(b1-4)GlcNAc(b1-3)Gal(b1-4)GlcNAc(b1-3)Gal(b1-4)GlcNAc(b1-3)Gal(b1-4)GlcNAc(b1-3)Gal(b1-4)GlcNAc(b1-2)[Gal(b1-4)GlcNAc(b1-3)Gal(b1-4)GlcNAc(b1-3)Gal(b1-4)GlcNAc(b1-3)Gal(b1-4)GlcNAc(b1-3)Gal(b1-4)GlcNAc(b1-6)]Man(a1-6)[Gal(b1-4)GlcNAc(b1-3)Gal(b1-4)GlcNAc(b1-3)Gal(b1-4)GlcNAc(b1-3)Gal(b1-4)GlcNAc(b1-3)Gal(b1-4)GlcNAc(b1-2)Man(a1-3)]Man(b1-4)GlcNAc(b1-4)[Fuc(a1-6)]GlcNAc
# How it was run: as §1
# [22] = target: Gal(b1-4)GlcNAc(b1-3)Gal(b1-4)GlcNAc(b1-3)Gal(b1-4)GlcNAc(b1-3)Gal(b1-4)GlcNAc(b1-3)Gal(b1-4)GlcNAc(b1-3)Gal(b1-4)GlcNAc(b1-2)Man(a1-3)[Gal(b1-4)GlcNAc(b1-3)Gal(b1-4)GlcNAc(b1-3)Gal(b1-4)GlcNAc(b1-3)Gal(b1-4)GlcNAc(b1-3)Gal(b1-4)GlcNAc(b1-3)Gal(b1-4)GlcNAc(b1-2)Man(a1-6)]Man(b1-4)GlcNAc(b1-4)GlcNAc
# How it was run: as §1
# [23] = target: Gal(b1-4)GlcNAc(b1-3)Gal(b1-4)GlcNAc(b1-3)GalNAc
# How it was run: as §1
# [24] = target: Gal(b1-4)GlcNAc(b1-3)Gal(b1-4)GlcNAc(b1-3)[Gal(b1-4)GlcNAc(b1-3)Gal(b1-4)GlcNAc(b1-6)]GalNAc
# How it was run: as §1
# [25] = target: Gal(b1-4)GlcNAc(b1-3)Gal(b1-4)GlcNAc(b1-6)[Gal(b1-3)]GalNAc
# How it was run: as §1
# [26] = target: Gal(b1-4)GlcNAc(b1-3)Gal(b1-4)[Fuc(a1-3)]GlcNAc(b1-3)Gal(b1-4)[Fuc(a1-3)]GlcNAc
# How it was run: as §1
# [27] = target: Gal(b1-4)GlcNAc(b1-3)GalNAc
# How it was run: as §1
# [28] = target: Gal(b1-4)GlcNAc(b1-3)[Fuc(a1-3)GlcNAc(b1-6)]Gal(b1-4)Glc
# How it was run: as §1
# [29] = target: Gal(b1-4)GlcNAc(b1-3)[Gal(b1-4)GlcNAc(b1-6)]Gal(b1-4)GlcNAc
# How it was run: as §1
# [30] = target: Gal(b1-4)GlcNAc(b1-3)[GlcNAc(b1-6)]Gal(b1-4)GlcNAc
# How it was run: as §1
# [31] = target: Gal(b1-4)GlcNAc(b1-6)Gal(b1-4)GlcNAc
# How it was run: as §1
# [32] = target: Gal(b1-4)GlcNAc(b1-6)GalNAc
# How it was run: as §1
# [33] = target: Gal(b1-4)GlcNAc(b1-6)[Gal(b1-3)]GalNAc
# How it was run: as §1
# [34] = target: Gal(b1-4)GlcNAc(b1-6)[Gal(b1-4)GlcNAc(b1-3)]GalNAc
# How it was run: as §1
# Gal(b1-4)GlcNAc6P = target: Gal(b1-4)GlcNAc6P
# How it was run: as §1
# Gal(b1-6)Gal = target: Gal(b1-6)Gal
# How it was run: as §1
# Gal3S(b1-3)GalNAc = target: Gal3S(b1-3)GalNAc
# How it was run: as §1
# Gal3S(b1-3)GlcNAc = target: Gal3S(b1-3)GlcNAc
# How it was run: as §1
binder,measurement,setting,value
B1,glycan array binding signal (z-score),[1],0.261
same,glycan array binding signal (z-score),[2],-0.302
same,glycan array binding signal (z-score),[3],-0.267
same,glycan array binding signal (z-score),[4],0.236
same,glycan array binding signal (z-score),[5],-0.375
same,glycan array binding signal (z-score),[6],0.054
same,glycan array binding signal (z-score),[7],-0.464
same,glycan array binding signal (z-score),[8],0.246
same,glycan array binding signal (z-score),[9],-0.136
same,glycan array binding signal (z-score),[10],0.297
same,glycan array binding signal (z-score),[11],-0.068
same,glycan array binding signal (z-score),[12],-0.454
same,glycan array binding signal (z-score),[13],0.276
same,glycan array binding signal (z-score),[14],-0.04
same,glycan array binding signal (z-score),[15],-0.272
same,glycan array binding signal (z-score),[16],-0.423
same,glycan array binding signal (z-score),[17],-0.204
same,glycan array binding signal (z-score),[18],-0.342
same,glycan array binding signal (z-score),[19],-0.293
same,glycan array binding signal (z-score),[20],-0.478
same,glycan array binding signal (z-score),[21],-0.401
same,glycan array binding signal (z-score),[22],-0.27
same,glycan array binding signal (z-score),[23],-0.105
same,glycan array binding signal (z-score),[24],0.096
same,glycan array binding signal (z-score),[25],0.314
same,glycan array binding signal (z-score),[26],-0.305
same,glycan array binding signal (z-score),[27],-0.357
same,glycan array binding signal (z-score),[28],-0.062
same,glycan array binding signal (z-score),[29],-0.24
same,glycan array binding signal (z-score),[30],-0.642
same,glycan array binding signal (z-score),[31],-0.635
same,glycan array binding signal (z-score),[32],0.335
same,glycan array binding signal (z-score),[33],-0.295
same,glycan array binding signal (z-score),[34],-0.332
same,glycan array binding signal (z-score),Gal(b1-4)GlcNAc6P,0.464
same,glycan array binding signal (z-score),Gal(b1-6)Gal,0.196
same,glycan array binding signal (z-score),Gal3S(b1-3)GalNAc,-0.362
same,glycan array binding signal (z-score),Gal3S(b1-3)GlcNAc,-0.347
